# Assay results from the supplement of paper PMC8728848.
# Some of the results follow.
# What was measured:
# Assay in all cases: glycan array binding signal (z-score within array); higher = stronger binding
# Details in all cases: glycan notation: IUPAC condensed, linker removed
# [1] = target: Gal(b1-4)GlcNAc(b1-2)Man(a1-6)[GlcNAc(b1-2)Man(a1-3)]Man(b1-4)GlcNAc(b1-4)GlcNAc
# In short: (§1)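 From the Consortium for Functional Glycomics database, 3228 arrays were curated, keeping only those whose protein sequence was available. Binding is given as a within-array Z-score averaged across arrays sharing a protein sequence and across linkers. Negative Z-scores can be read as non-binding.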
# [2] = target: Gal(b1-4)GlcNAc(b1-2)Man(a1-6)[Man(a1-3)]Man(b1-4)GlcNAc(b1-4)GlcNAc
# In short: as §1
# [3] = target: Gal(b1-4)GlcNAc(b1-2)[Gal(b1-4)GlcNAc(b1-4)]Man(a1-3)[Gal(b1-4)GlcNAc(b1-2)Man(a1-6)]Man(b1-4)GlcNAc(b1-4)GlcNAc
# In short: as §1
# [4] = target: Gal(b1-4)GlcNAc(b1-2)[Gal(b1-4)GlcNAc(b1-4)]Man(a1-3)[Gal(b1-4)GlcNAc(b1-2)[Gal(b1-4)GlcNAc(b1-6)]Man(a1-6)]Man(b1-4)GlcNAc(b1-4)GlcNAc
# In short: as §1
# [5] = target: Gal(b1-4)GlcNAc(b1-2)[Gal(b1-4)GlcNAc(b1-4)]Man(a1-3)[GlcNAc(b1-4)][Gal(b1-4)GlcNAc(b1-2)Man(a1-6)]Man(b1-4)GlcNAc(b1-4)GlcNAc
# In short: as §1
# [6] = target: Gal(b1-4)GlcNAc(b1-2)[Gal(b1-4)GlcNAc(b1-4)]Man(a1-3)[GlcNAc(b1-4)][Gal(b1-4)GlcNAc(b1-2)[Gal(b1-4)GlcNAc(b1-6)]Man(a1-6)]Man(b1-4)GlcNAc(b1-4)GlcNAc
# In short: as §1
# [7] = target: Gal(b1-4)GlcNAc(b1-2)[Gal(b1-4)GlcNAc(b1-6)]Man(a1-6)[Gal(b1-4)GlcNAc(b1-2)Man(a1-3)]Man(b1-4)GlcNAc(b1-4)GlcNAc
# In short: as §1
# [8] = target: Gal(b1-4)GlcNAc(b1-2)[Gal(b1-4)GlcNAc(b1-6)]Man(a1-6)[Gal(b1-4)GlcNAc(b1-2)Man(a1-3)]Man(b1-4)GlcNAc(b1-4)[Fuc(a1-6)]GlcNAc
# In short: as §1
# [9] = target: Gal(b1-4)GlcNAc(b1-2)[Gal(b1-4)GlcNAc(b1-6)]Man(a1-6)[GlcNAc(b1-4)][Gal(b1-4)GlcNAc(b1-2)Man(a1-3)]Man(b1-4)GlcNAc(b1-4)GlcNAc
# In short: as §1
# [10] = target: Gal(b1-4)GlcNAc(b1-2)[Gal(b1-4)GlcNAc(b1-6)]Man(a1-6)[GlcNAc(b1-4)][Gal(b1-4)GlcNAc(b1-2)[Gal(b1-4)GlcNAc(b1-4)]Man(a1-3)]Man(b1-4)GlcNAc(b1-4)[Fuc(a1-6)]GlcNAc
# In short: as §1
# [11] = target: Gal(b1-4)GlcNAc(b1-3)Gal(b1-3)GalNAc
# In short: as §1
# [12] = target: Gal(b1-4)GlcNAc(b1-3)Gal(b1-3)GlcNAc
# In short: as §1
# [13] = target: Gal(b1-4)GlcNAc(b1-3)Gal(b1-4)Glc
# In short: as §1
# [14] = target: Gal(b1-4)GlcNAc(b1-3)Gal(b1-4)GlcNAc
# In short: as §1
# [15] = target: Gal(b1-4)GlcNAc(b1-3)Gal(b1-4)GlcNAc(b1-2)Man(a1-3)[Gal(b1-4)GlcNAc(b1-3)Gal(b1-4)GlcNAc(b1-2)Man(a1-6)]Man(b1-4)GlcNAc(b1-4)GlcNAc
# In short: as §1
# [16] = target: Gal(b1-4)GlcNAc(b1-3)Gal(b1-4)GlcNAc(b1-2)Man(a1-3)[Gal(b1-4)GlcNAc(b1-3)Gal(b1-4)GlcNAc(b1-2)Man(a1-6)]Man(b1-4)GlcNAc(b1-4)[Fuc(a1-6)]GlcNAc
# In short: as §1
# [17] = target: Gal(b1-4)GlcNAc(b1-3)Gal(b1-4)GlcNAc(b1-2)[Gal(b1-4)GlcNAc(b1-3)Gal(b1-4)GlcNAc(b1-6)]Man(a1-6)[Gal(b1-4)GlcNAc(b1-3)Gal(b1-4)GlcNAc(b1-2)Man(a1-3)]Man(b1-4)GlcNAc(b1-4)GlcNAc
# In short: as §1
# [18] = target: Gal(b1-4)GlcNAc(b1-3)Gal(b1-4)GlcNAc(b1-2)[Gal(b1-4)GlcNAc(b1-3)Gal(b1-4)GlcNAc(b1-6)]Man(a1-6)[Gal(b1-4)GlcNAc(b1-3)Gal(b1-4)GlcNAc(b1-2)Man(a1-3)]Man(b1-4)GlcNAc(b1-4)[Fuc(a1-6)]GlcNAc
# In short: as §1
# [19] = target: Gal(b1-4)GlcNAc(b1-3)Gal(b1-4)GlcNAc(b1-3)Gal(b1-4)GlcNAc
# In short: as §1
# [20] = target: Gal(b1-4)GlcNAc(b1-3)Gal(b1-4)GlcNAc(b1-3)Gal(b1-4)GlcNAc(b1-2)Man(a1-3)[Gal(b1-4)GlcNAc(b1-3)Gal(b1-4)GlcNAc(b1-3)Gal(b1-4)GlcNAc(b1-2)Man(a1-6)]Man(b1-4)GlcNAc(b1-4)GlcNAc
# In short: as §1
# [21] = target: Gal(b1-4)GlcNAc(b1-3)Gal(b1-4)GlcNAc(b1-3)Gal(b1-4)GlcNAc(b1-2)Man(a1-3)[Gal(b1-4)GlcNAc(b1-3)Gal(b1-4)GlcNAc(b1-3)Gal(b1-4)GlcNAc(b1-2)Man(a1-6)]Man(b1-4)GlcNAc(b1-4)[Fuc(a1-6)]GlcNAc
# In short: as §1
# [22] = target: Gal(b1-4)GlcNAc(b1-3)Gal(b1-4)GlcNAc(b1-3)Gal(b1-4)GlcNAc(b1-2)[Gal(b1-4)GlcNAc(b1-3)Gal(b1-4)GlcNAc(b1-3)Gal(b1-4)GlcNAc(b1-6)]Man(a1-6)[Gal(b1-4)GlcNAc(b1-3)Gal(b1-4)GlcNAc(b1-3)Gal(b1-4)GlcNAc(b1-2)Man(a1-3)]Man(b1-4)GlcNAc(b1-4)[Fuc(a1-6)]GlcNAc
# In short: as §1
binder,measurement,setting,value
CpGal16 (Clavelina picta) (protein) MAKMITNYVGKRIECIMVATDMMSTVFSLASATGDLPFYINFRQRENSIVMNTRVHGKWQYEKSQSSGGMNFYEPFRLVVEVRPSVFKVTVSTMGEEDGITFNLQYSQITIKPDEIVAMHLGYCNLRSELLVTDL,glycan array binding signal (z-score),[1],-0.389
same,glycan array binding signal (z-score),[2],-0.432
same,glycan array binding signal (z-score),[3],0.283
same,glycan array binding signal (z-score),[4],0.087
same,glycan array binding signal (z-score),[5],-0.179
same,glycan array binding signal (z-score),[6],-0.231
same,glycan array binding signal (z-score),[7],-0.141
same,glycan array binding signal (z-score),[8],0.631
same,glycan array binding signal (z-score),[9],-0.171
same,glycan array binding signal (z-score),[10],-0.097
same,glycan array binding signal (z-score),[11],-0.38
same,glycan array binding signal (z-score),[12],-0.341
same,glycan array binding signal (z-score),[13],0.003
same,glycan array binding signal (z-score),[14],-0.294
same,glycan array binding signal (z-score),[15],1.1
same,glycan array binding signal (z-score),[16],0.571
same,glycan array binding signal (z-score),[17],0.683
same,glycan array binding signal (z-score),[18],0.521
same,glycan array binding signal (z-score),[19],-0.379
same,glycan array binding signal (z-score),[20],0.774
same,glycan array binding signal (z-score),[21],0.953
same,glycan array binding signal (z-score),[22],1.44
